# Test results published in PubChem BioAssay AID1479 (National Center for Advancing Translational Sciences (NCATS), 2009).
# Screen size: about 280,000 compounds; about 820 (0.29%) were called active. Inconclusive means that the source gave no clear call. Such entries were picked first, then a sample of the others. Calls come from the whole dose curve; as a rule, active = well fitted curve in either direction with a large enough effect; inconclusive = small, poorly fitted or top-dose-only effect; inactive = flat fitted curve, though single readings scatter. Potencies of inconclusive entries are left out as doubtful fits.
# Assay: Total Fluorescence Counterscreen for Inhibitors of the Interaction of Thyroid Hormone Receptor and Steroid Receptor Coregulator 2
# Conditions: TRb/SRC2 Texas Red total fluorescence interference; series mostly up to 106 µM; fluorescence change, negative = quenching: at the top concentration
# How it was run: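 Human TRβ ligand-binding domain (0.6 uM) and Texas Red SRC2 peptide (20 nM) in Tris buffer with 1 uM T3 and 5% DMSO were incubated with pinned compound for 5 hr at ambient temperature. Total fluorescence was computed as S + 2P (555/632 nm).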
# % is set by controls: 0 for no effect and ±100 for the full control effect; potency is the fitted concentration of half-maximal effect; tags give direction and shape of the fitted curve or compound fluorescence and quenching.
SMILES,"fluorescence change, negative = quenching",Potency
Cc1cc(Cl)ccc1Nc1ncccc1C(N)=O,inactive: 0.868%,–
O=C(COC(=O)c1c(Cl)cccc1Cl)Nc1cc(Cl)ccc1Oc1ccccc1,–,"inconclusive [falling, full curve, poor fit]"
O=C(CCl)Nc1cccc(S(=O)(=O)N2CCCCCC2)c1,inactive: 0.98%,–
Cc1cc(OC(C)C(=O)Nc2c(C(=O)c3ccc(F)cc3)oc3ccccc23)ccc1Cl (stereo not given),–,"inconclusive [falling, full curve, poor fit]"
Oc1nc(Nc2ccc(F)cc2)sc1/C=C1\C=Nc2ccccc21,inactive: -9.56%,–
O=C(COc1ccc(Br)cc1)N(Cc1ccccc1)c1ccccn1,inactive: 1.62%,–
CC(C)NC[C@@H](O)COc1ccc(COCCOC(C)C)cc1,–,"inconclusive [quencher, full curve]"
O=c1c2c3c(sc2[nH]c(=S)n1Cc1ccco1)CCC3,inactive: -3.51%,–
CCOC(=O)CC(NC(=O)CCc1c(C)nc2c(c(C)nn2-c2ccc(C)c(C)c2)c1C)c1ccc(C)cc1 (stereo not given),–,inconclusive [quencher]
Cc1cccc(NC(=S)NC(C)(C)CC(C)(C)C)c1,inactive: -2.18%,–
COc1cccc(-c2cc(C(=O)Nc3c(C)nn(Cc4ccccc4Cl)c3C)no2)c1,–,"inconclusive [falling, full curve, poor fit]"
Cc1ccc(CNC(=O)c2sc3nc[nH]c(=O)c3c2C)cc1,–,"inconclusive [quencher, full curve]"
CCCCC1=CC2=C(c3ccco3)C(=O)C(C)(OC(=O)c3ccc(OC)cc3)C(=O)C2=CN1Cc1ccccc1 (stereo not given),–,inactive
CCC(Sc1nnc2c(n1)[nH]c1ccccc12)C(=O)Nc1nnc(C(C)C)s1 (stereo not given),–,"inconclusive [quencher, full curve]"
CCOc1ccc(CCNC(=O)C2CCN(C(=O)N3CC(CC)Oc4ccccc43)CC2)cc1 (stereo not given),–,"inconclusive [quencher, full curve]"
O=C(C[n+]1cc(-c2ccc(Cl)cc2)n2c1CCC2)N1c2ccccc2Sc2ccccc21,–,"inconclusive [falling, partial curve, poor fit]"
Cc1ccccc1C(=O)Nc1nnc(S(=O)(=O)N(C)Cc2ccccc2)s1,–,"inconclusive [quencher, full curve]"
CCc1ccc(OC(C)C(=O)N2CCC(c3nc4ccccc4o3)CC2)cc1 (stereo not given),–,"inconclusive [falling, full curve, poor fit]"
Cc1ccccc1Nc1c(-c2cc(Br)ccc2F)nc2ccccn12,–,active: 3.16 µM [quencher]
Cc1c(C(=O)N(C)C2CCCCC2)sc2nc3ccc(N)cc3n12,inactive: -1.75%,–
